These are yes or no findings as the source states them, for the method shown. In cells and extracts the contact can be indirect. Some entries that bind do so weakly or less than the wild type. Where a sequence is shown, tags or fusion partners need not be part of it.
T1: B9D1 (co-IP of Figure 6H) (UniProt Q9UPM9)
T1 sequence: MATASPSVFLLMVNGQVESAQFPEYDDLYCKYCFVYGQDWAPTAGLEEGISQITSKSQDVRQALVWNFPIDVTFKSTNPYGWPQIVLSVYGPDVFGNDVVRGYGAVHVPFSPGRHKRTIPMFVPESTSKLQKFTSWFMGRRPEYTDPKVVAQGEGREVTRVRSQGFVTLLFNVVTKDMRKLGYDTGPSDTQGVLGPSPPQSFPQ

Protein sequences, listed by entry. Tags and fused reporters are not part of them. Residues count along the entry.
UniProt Q5HYA8, residues 37-995: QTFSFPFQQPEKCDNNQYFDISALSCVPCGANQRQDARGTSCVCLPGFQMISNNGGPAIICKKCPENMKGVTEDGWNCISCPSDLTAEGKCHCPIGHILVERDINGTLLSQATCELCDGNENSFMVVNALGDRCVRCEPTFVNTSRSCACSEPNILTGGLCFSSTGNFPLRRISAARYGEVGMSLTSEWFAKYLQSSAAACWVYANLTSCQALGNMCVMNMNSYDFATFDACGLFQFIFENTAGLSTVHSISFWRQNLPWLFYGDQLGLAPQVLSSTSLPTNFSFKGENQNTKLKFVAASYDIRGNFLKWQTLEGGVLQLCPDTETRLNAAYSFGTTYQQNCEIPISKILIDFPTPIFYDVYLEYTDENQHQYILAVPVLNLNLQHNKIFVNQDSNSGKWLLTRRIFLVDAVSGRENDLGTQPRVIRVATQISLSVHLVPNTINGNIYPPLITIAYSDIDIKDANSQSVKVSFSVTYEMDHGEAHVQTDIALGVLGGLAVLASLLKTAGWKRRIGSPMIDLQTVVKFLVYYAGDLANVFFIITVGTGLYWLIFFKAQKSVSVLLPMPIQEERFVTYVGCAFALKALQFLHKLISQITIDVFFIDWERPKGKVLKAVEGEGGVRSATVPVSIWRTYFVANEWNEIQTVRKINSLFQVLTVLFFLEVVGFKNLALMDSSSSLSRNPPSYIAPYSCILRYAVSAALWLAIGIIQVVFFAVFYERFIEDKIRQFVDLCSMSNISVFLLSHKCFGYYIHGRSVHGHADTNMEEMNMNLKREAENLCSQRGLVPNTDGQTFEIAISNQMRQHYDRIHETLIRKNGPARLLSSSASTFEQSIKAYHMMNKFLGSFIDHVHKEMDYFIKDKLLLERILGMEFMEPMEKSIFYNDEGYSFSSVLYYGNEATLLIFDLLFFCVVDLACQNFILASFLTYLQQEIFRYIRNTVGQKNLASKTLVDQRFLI

T2: MKS1 (co-IP of Figure 6H) (UniProt Q9NXB0)
T2 sequence: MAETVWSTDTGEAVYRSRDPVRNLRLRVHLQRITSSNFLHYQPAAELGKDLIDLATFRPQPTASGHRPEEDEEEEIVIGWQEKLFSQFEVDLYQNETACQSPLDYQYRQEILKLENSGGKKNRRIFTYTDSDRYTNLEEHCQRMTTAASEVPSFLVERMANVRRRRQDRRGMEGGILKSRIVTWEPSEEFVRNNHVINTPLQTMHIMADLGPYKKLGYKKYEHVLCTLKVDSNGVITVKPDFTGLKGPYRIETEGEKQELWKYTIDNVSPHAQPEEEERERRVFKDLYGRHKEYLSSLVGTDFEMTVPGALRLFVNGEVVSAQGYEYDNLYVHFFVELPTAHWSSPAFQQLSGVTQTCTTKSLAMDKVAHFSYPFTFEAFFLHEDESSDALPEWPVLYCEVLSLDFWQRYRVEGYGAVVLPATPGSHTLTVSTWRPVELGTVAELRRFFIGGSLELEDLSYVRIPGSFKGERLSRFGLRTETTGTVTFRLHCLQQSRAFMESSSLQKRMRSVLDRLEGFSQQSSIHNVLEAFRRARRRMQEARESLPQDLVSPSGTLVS


Tests used:
TMEM67-FLAG = TMEM67-FLAG (UniProt Q5HYA8); test: co-IP; lysates of co-transfected HEK293T cells; FLAG-TMEM67 as bait; IP buffer 50 mM Tris-HCl pH 7.5, 150 mM NaCl, 1 mM EDTA, 5% glycerol, 0.5% Triton X-100; beads 3 hours at 4°C; Western blot
TMEM67-HA = TMEM67-HA (UniProt Q5HYA8); test: co-IP; lysates of co-transfected HEK293T cells; bait not told (FLAG M2 or HA beads); IP buffer 50 mM Tris-HCl pH 7.5, 150 mM NaCl, 1 mM EDTA, 5% glycerol, 0.5% Triton X-100; beads 3 hours at 4°C; Western blot
[1] = target: T1, B9D1 (co-IP of Figure 6H); test: as above
[2] = target: T2, MKS1 (co-IP of Figure 6H); test: as above

Row | Binder | binding (TMEM67-FLAG) | binding (TMEM67-HA) | binding [1] | binding [2]
1 | B9D2-HA (protein, UniProt Q9BPU9 1-175) MAEVHVIGQIIGASGFSESSLFCKWGIHTGAAWKLLSGVREGQTQVDTPQIGDMAYWSHPIDLHFATKGLQGWPRLHFQVWSQDSFGRCQLAGYGFCHVPSSPGTHQLACPTWRPLGSWREQLARAFVGGGPQLLHGDTIYSGADRYRLHTAAGGTVHLEIGLLLRNFDRYGVEC | binds | – | – | –
2 | FLAG-B9D2 p.D47V (protein, UniProt Q9BPU9 1-175) MAEVHVIGQIIGASGFSESSLFCKWGIHTGAAWKLLSGVREGQTQVVTPQIGDMAYWSHPIDLHFATKGLQGWPRLHFQVWSQDSFGRCQLAGYGFCHVPSSPGTHQLACPTWRPLGSWREQLARAFVGGGPQLLHGDTIYSGADRYRLHTAAGGTVHLEIGLLLRNFDRYGVEC | – | binds | binds | binds
3 | FLAG-B9D2 p.R75W (protein, UniProt Q9BPU9 1-175) MAEVHVIGQIIGASGFSESSLFCKWGIHTGAAWKLLSGVREGQTQVDTPQIGDMAYWSHPIDLHFATKGLQGWPWLHFQVWSQDSFGRCQLAGYGFCHVPSSPGTHQLACPTWRPLGSWREQLARAFVGGGPQLLHGDTIYSGADRYRLHTAAGGTVHLEIGLLLRNFDRYGVEC | – | binds | binds | binds
4 | FLAG-B9D2 p.S101R (protein, UniProt Q9BPU9 1-175) MAEVHVIGQIIGASGFSESSLFCKWGIHTGAAWKLLSGVREGQTQVDTPQIGDMAYWSHPIDLHFATKGLQGWPRLHFQVWSQDSFGRCQLAGYGFCHVPRSPGTHQLACPTWRPLGSWREQLARAFVGGGPQLLHGDTIYSGADRYRLHTAAGGTVHLEIGLLLRNFDRYGVEC | – | binds | binds | no binding
5 | MKS1-HA (protein, UniProt Q9NXB0 1-559) MAETVWSTDTGEAVYRSRDPVRNLRLRVHLQRITSSNFLHYQPAAELGKDLIDLATFRPQPTASGHRPEEDEEEEIVIGWQEKLFSQFEVDLYQNETACQSPLDYQYRQEILKLENSGGKKNRRIFTYTDSDRYTNLEEHCQRMTTAASEVPSFLVERMANVRRRRQDRRGMEGGILKSRIVTWEPSEEFVRNNHVINTPLQTMHIMADLGPYKKLGYKKYEHVLCTLKVDSNGVITVKPDFTGLKGPYRIETEGEKQELWKYTIDNVSPHAQPEEEERERRVFKDLYGRHKEYLSSLVGTDFEMTVPGALRLFVNGEVVSAQGYEYDNLYVHFFVELPTAHWSSPAFQQLSGVTQTCTTKSLAMDKVAHFSYPFTFEAFFLHEDESSDALPEWPVLYCEVLSLDFWQRYRVEGYGAVVLPATPGSHTLTVSTWRPVELGTVAELRRFFIGGSLELEDLSYVRIPGSFKGERLSRFGLRTETTGTVTFRLHCLQQSRAFMESSSLQKRMRSVLDRLEGFSQQSSIHNVLEAFRRARRRMQEARESLPQDLVSPSGTLVS | binds | – | – | –
6 | FLAG-B9D2 (WT) (protein, UniProt Q9BPU9 1-175) MAEVHVIGQIIGASGFSESSLFCKWGIHTGAAWKLLSGVREGQTQVDTPQIGDMAYWSHPIDLHFATKGLQGWPRLHFQVWSQDSFGRCQLAGYGFCHVPSSPGTHQLACPTWRPLGSWREQLARAFVGGGPQLLHGDTIYSGADRYRLHTAAGGTVHLEIGLLLRNFDRYGVEC | – | binds | binds | –

Source: publication PMC12807484
